The source of these data is the supplement of paper PMC7238544.

Molecules are shown by their SMILES. Where a name gives a salt, the structure may show the parent alone. ± gives the standard deviation of the averaged measurements. Some of the results follow.

What all share (conditions): priming compound concentration 100 µM
The subject of assay [1] is hAMSC donor 1. The experiment in a line: Hoechst total cell count ratio vs vehicle control; higher = more cells (less toxicity).
Assay [2] has as its system hAMSC donor 2. Described as above.
The subject of assay [3] is hAMSC donor 1. Description: transgenic luciferase activity (RLU/mg protein) fold change vs vehicle control (ratio); higher = more transgene expression.
Assay [4] deals with hAMSC donor 2. The assay is described as above.
Assay [5] relates to hAMSC donor 1. The experiment in a line: transfection efficiency (EGFP+ cells / Hoechst count) fold change vs vehicle control (ratio); hAMSC are human adipose-derived mesenchymal stem cells given an EGFP-luciferase plasmid by lipofection; higher = enhanced transfection.
In assay [6] the test system is hAMSC donor 2. The description is as above.
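Wherever Hoechst total cell count ratio vs vehicle control is given: compound added 30 min before Lipofectamine 3000 lipoplex delivery, triplicate-well means expressed against DMSO vehicle control wells of the same 96-well plate.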
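Wherever transfection efficiency (EGFP+ cells / Hoechst count) fold change vs vehicle control is given: compounds added 30 min before Lipofectamine 3000 lipoplex transfection, triplicate means relative to DMSO vehicle wells on the same plate, luciferase RLU normalized to BCA total protein.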
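Wherever transgenic luciferase activity (RLU/mg protein) fold change vs vehicle control is given: compounds in DMSO added 30 min before Lipofectamine 3000 transfection of pEGFP-Luc in 96-well plates, values are means of triplicate wells over DMSO vehicle wells on the same plate.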

On to `CC1CNc2c(cccc2S(=O)(=O)N[C@@H](CCCNC(=N)N)C(=O)N2CC[C@@H](C)C[C@@H]2C(=O)O)C1` (stereo partly specified) [Argatroban], for which the “Hoechst total cell count ratio” value came to 1.49 ± 0.35 in assay [1] and 1.21 ± 0.13 in assay [2]. Also, the transgenic luciferase activity in assay [3] is 0.982 ± 0.18; in assay [4], 0.883 ± 0.096. Further, the transfection efficiency in assay [5] stood at 0.91 ± 0.16; in assay [6], 1.08 ± 0.18.

As for `CNC(=C[N+](=O)[O-])NCCSCc1csc(CN(C)C)n1` [Nizatidine], the “Hoechst total cell count ratio” value in assay [1] amounted to 1.23 ± 0.055; in assay [2], 0.888 ± 0.049. For the same compound, the results for the transgenic luciferase activity in assay [3] and in assay [4] were 0.732 ± 0.14 and 0.903 ± 0.38, respectively. For the same compound, the transfection efficiency in assay [5] was 1.05 ± 0.096; in assay [6] it was 1.32 ± 0.3.

In the case of `CN1CCN(CCCN2c3ccccc3Sc3ccc(C(F)(F)F)cc32)CC1` [Trifluoperazine hydrochloride], the “Hoechst total cell count ratio” value in assay [1] worked out at 0.096 ± 0.054; in assay [2] it was 0.0307 ± 0.02. Also, the figures for the transgenic luciferase activity in assay [3] and in assay [4] were 0.000515 ± 7.3e-05 and 0.000386 ± 2.9e-05, respectively. Besides, the transfection efficiency in assay [5] was determined as 0.4 ± 0.18; in assay [6], 0.575 ± 0.33.

Turning to `COc1ccc(-c2oc3c(CC=C(C)C)c(O[C@@H]4O[C@H](CO)[C@@H](O)[C@H](O)[C@H]4O)cc(O)c3c(=O)c2O[C@@H]2O[C@@H](C)[C@H](O)[C@@H](O)[C@H]2O)cc1` [Icariin], the “Hoechst total cell count ratio” value in assay [1] amounted to 1.48 ± 0.15; in assay [2], 0.96 ± 0.55. Besides, the transgenic luciferase activity was determined as 0.64 ± 0.34 in assay [3] and 1.31 ± 0.1 in assay [4]. The transfection efficiency in assay [5] was found to be 0.792 ± 0.29; in assay [6], 1.45 ± 0.39.

On to `CC(C(=O)O)c1ccc(CC2CCCC2=O)cc1` (stereo unspecified) [Loxoprofen sodium], for which the figures for the “Hoechst total cell count ratio” value in assay [1] and in assay [2] were 1.05 ± 0.27 and 1.05 ± 0.065, respectively. The transgenic luciferase activity in assay [3] stood at 2.7 ± 1.6; in assay [4], 0.475 ± 0.19. Further, the transfection efficiency amounted to 1.14 ± 0.13 in assay [5] and 1.23 ± 0.13 in assay [6].

In the case of `Nc1nc(N)c2nc(-c3ccccc3)c(N)nc2n1` [Triamterene], the “Hoechst total cell count ratio” value in assay [1] was determined as 1.07 ± 0.062; in assay [2], 1.08 ± 0.12. Besides, the transgenic luciferase activity in assay [3] was determined as 0.362 ± 0.32; in assay [4] it was 0.166 ± 0.031. The results for the transfection efficiency in assay [5] and in assay [6] were 0.771 ± 0.71 and 0.633 ± 0.19, respectively.

As for `CCc1nn(CCCN2CCN(c3cccc(Cl)c3)CC2)c(=O)n1CCOc1ccccc1` [Nefazodone hydrochloride], the “Hoechst total cell count ratio” value in assay [1] worked out at 1.23 ± 0.24; in assay [2], 0.832 ± 0.34. The transgenic luciferase activity in assay [3] worked out at 0.626 ± 0.35; in assay [4], 0.994 ± 0.41. Also, the transfection efficiency amounted to 0.564 ± 0.1 in assay [5] and 1.03 ± 0.51 in assay [6].

For `CC(=O)N[C@H]1[C@H]([C@H](O)[C@H](O)CO)OC(C(=O)O)=C[C@@H]1NC(=N)N` [Zanamivir hydrate], the results for the “Hoechst total cell count ratio” value in assay [1] and in assay [2] were 1.26 ± 0.2 and 1.76 ± 0.21, respectively. In addition, the transgenic luciferase activity in assay [3] is 0.918 ± 0.57; in assay [4], 0.558 ± 0.0061. Also, the transfection efficiency stood at 0.935 ± 0.14 in assay [5] and 0.681 ± 0.13 in assay [6].

For the compound `Clc1ccccc1C(c1ccccc1)(c1ccccc1)n1ccnc1` [Clotrimazole], the results for the “Hoechst total cell count ratio” value in assay [1] and in assay [2] were 0.311 ± 0.17 and 0.25 ± 0.053, respectively. The transgenic luciferase activity in assay [3] was found to be 0.365 ± 0.45; in assay [4] it was 0.229 ± 0.19. Also, the transfection efficiency in assay [5] turned out to be 0.26 ± 0.26; in assay [6], 0.268 ± 0.17.

As for `O=c1[nH]c(=O)n(C2CCCO2)cc1F` (stereo unspecified) [Tegafur], the figures for the “Hoechst total cell count ratio” value in assay [1] and in assay [2] were 1.4 ± 0.19 and 1.33 ± 0.12, respectively. Also, the transgenic luciferase activity was 1.1 ± 0.42 in assay [3] and 1.04 ± 0.14 in assay [4]. For the same compound, the transfection efficiency in assay [5] was 1.25 ± 0.033; in assay [6], 0.895 ± 0.2.

Regarding `CCOc1cc(CC(=O)N[C@@H](CC(C)C)c2ccccc2N2CCCCC2)ccc1C(=O)O` [Repaglinide], the “Hoechst total cell count ratio” value in assay [1] was determined as 1.33 ± 0.18; in assay [2], 1.89 ± 0.035. Besides, the transgenic luciferase activity came out at 1.58 ± 0.18 in assay [3] and 0.526 ± 0.095 in assay [4]. Also, the transfection efficiency came out at 0.908 ± 0.22 in assay [5] and 0.421 ± 0.069 in assay [6].

As for `CCOC(=O)C1=C(C)NC(C)=C(C(=O)OCC)C1c1ccccc1/C=C/C(=O)OC(C)(C)C` [Lacidipine], the “Hoechst total cell count ratio” value in assay [1] is 0.207 ± 0.049; in assay [2], 0.13 ± 0.062. The transgenic luciferase activity in assay [3] is 0.00207 ± 0.0018; in assay [4], 0.000389 ± 5.9e-05. Also, the transfection efficiency in assay [5] came out at 1.76 ± 2; in assay [6] it was 0.818 ± 0.87.

Consider `CC(C)(O)c1ccccc1CC[C@@H](SCC1(CC(=O)O)CC1)c1cccc(/C=C/c2ccc3ccc(Cl)cc3n2)c1` [Montelukast sodium], for which the entries for the “Hoechst total cell count ratio” value in assay [1] and in assay [2] were 1.23 ± 0.079 and 1.06 ± 0.22, respectively. Besides, the transgenic luciferase activity in assay [3] amounted to 1.03 ± 0.24; in assay [4], 1.89 ± 0.089. Besides, the figures for the transfection efficiency in assay [5] and in assay [6] were 0.282 ± 0.023 and 0.754 ± 0.038, respectively.

Turning to `CCN1CCN(C(=O)N[C@@H](C(=O)N[C@@H]2C(=O)N3[C@@H]2SC(C)(C)[C@@H]3C(=O)O)c2ccccc2)C(=O)C1=O` [Piperacillin sodium], the “Hoechst total cell count ratio” value is 1.18 ± 0.16 in assay [1] and 1.55 ± 0.081 in assay [2]. Further, the transgenic luciferase activity in assay [3] is 0.547 ± 0.47; in assay [4], 0.797 ± 0.19. Besides, the transfection efficiency in assay [5] stood at 1.05 ± 0.24; in assay [6], 0.778 ± 0.16.

Regarding `CNCCC=C1c2ccccc2CCc2ccccc21` [Nortriptyline hydrochloride], the “Hoechst total cell count ratio” value in assay [1] stood at 0.181 ± 0.057; in assay [2], 0.234 ± 0.12. Further, the transgenic luciferase activity stood at 0.0677 ± 0.016 in assay [3] and 0.00124 ± 0.00058 in assay [4]. In addition, the values for the transfection efficiency in assay [5] and in assay [6] were 0.516 ± 0.35 and 0.0962 ± 0.1, respectively.

For `CC(=O)[C@H]1CC[C@H]2[C@@H]3C[C@H](C)C4=CC(=O)CC[C@]4(C)[C@H]3[C@@H](O)C[C@]12C` [Medrysone], the “Hoechst total cell count ratio” value in assay [1] was found to be 1.07 ± 0.1; in assay [2], 1.81 ± 0.27. The transgenic luciferase activity in assay [3] came out at 4.6 ± 0.77; in assay [4] it was 1.84 ± 0.25. The values for the transfection efficiency in assay [5] and in assay [6] were 1.22 ± 0.27 and 1.36 ± 0.13, respectively.

With `CN1[C@@H]2CC[C@H]1C[C@@H](OC(c1ccccc1)c1ccccc1)C2` [Benztropine mesylate], the “Hoechst total cell count ratio” value amounted to 0.951 ± 0.057 in assay [1] and 0.615 ± 0.41 in assay [2]. In addition, the transgenic luciferase activity in assay [3] amounted to 0.767 ± 0.33; in assay [4], 0.219 ± 0.11. Besides, the transfection efficiency in assay [5] was 0.997 ± 0.21; in assay [6], 0.992 ± 0.23.

`CN1CCC(=C2c3ccccc3CC(=O)c3sccc32)CC1` [Ketotifen fumarate]: the “Hoechst total cell count ratio” value in assay [1] worked out at 1.2 ± 0.15; in assay [2] it was 1 ± 0.099. Besides, the values for the transgenic luciferase activity in assay [3] and in assay [4] were 0.59 ± 0.2 and 0.343 ± 0.015, respectively. Also, the transfection efficiency in assay [5] came out at 1.51 ± 0.12; in assay [6], 0.867 ± 0.027.

On to `OC(CCN1CCCC1)(c1ccccc1)C1CCCCC1` (stereo unspecified) [Procyclidine hydrochloride], for which the “Hoechst total cell count ratio” value amounted to 1.41 ± 0.13 in assay [1] and 1.18 ± 0.11 in assay [2]. For the same compound, the transgenic luciferase activity in assay [3] was found to be 0.986 ± 0.29; in assay [4], 0.642 ± 0.08. Further, the transfection efficiency in assay [5] came out at 0.806 ± 0.21; in assay [6], 0.707 ± 0.1.

On to `CCOC(=O)C1=C(C)NC(C)=C(C(=O)OC)C1c1cccc(Cl)c1Cl` (stereo unspecified) [Felodipine], for which the “Hoechst total cell count ratio” value came to 0.306 ± 0.11 in assay [1] and 0.207 ± 0.0049 in assay [2]. The results for the transgenic luciferase activity in assay [3] and in assay [4] were 0.379 ± 0.32 and 0.392 ± 0.21, respectively. Moreover, the transfection efficiency in assay [5] is 1.34 ± 0.27; in assay [6], 0.375 ± 0.17.

For the compound `CC1(C)S[C@@H]2[C@H](NC(=O)[C@H](N)c3ccccc3)C(=O)N2[C@H]1C(=O)O` [Ampicillin sodium], the entries for the “Hoechst total cell count ratio” value in assay [1] and in assay [2] were 1.15 ± 0.16 and 1.44 ± 0.31, respectively. In addition, the transgenic luciferase activity came to 1.24 ± 0.55 in assay [3] and 0.875 ± 0.18 in assay [4]. Moreover, the transfection efficiency stood at 0.982 ± 0.26 in assay [5] and 0.973 ± 0.081 in assay [6].
